B1: PhoQ; a variant is named by its letters at X, in order, P23837 (parent)
chain: MKKLLRLFFPLSLRVRFLLATAAVVLVLSLAYGMVALIGYSVSFDKTTFRLLRGESNLFYTLAKWENNKLHVELPENIDKQSPTMTLIYDENGQLLWAQRDVPWLMKMIQPDWLKSNGFHEIEADVNDTSLLLSGDHSIQQQLQEVREDDDDAEMTHSVAVNVYPATSRMPKLTIVVVDTIPVELKSSYMVWSWFIYVLSANLLLVIPLLWVAAWWSLRPIEALAKEVRELEEHNRELLNPATTRELTSLVRNLNRLLKSERERYDKYRTTLTDLTHSLKTPLXXLQXXLRSLRSEKMSVSDAEPVMLEQISRISQQIGYYLHRASMRGGTLLSRELHPVAPLLDNLTSALNKVYQRKGVNISLDISPEISFVGEQNDFVEVMGNVLDNACKYCLEFVEISARQTDEHLYIVVEDDGPGIPLSKREVIFDRGQRVDTLRPGQGVGLAVAREITEQYEGKIVAGESMLGGARMEVIFGRQHSAPKDE

The other results are listed elsewhere or left out.

In this assay the parent is B1. Nature of the assay: enrichment ratio after two sorts for PhoP signalling (ratio (wild type AVST 3.29)); higher = more functional. The note with it: with PhoP (E. coli).
WGNH: the enrichment ratio is not above 0.25.
Next, GDAP: not above 0.25; YAGN: not above 0.25.
Next, LGKD: not above 0.25; LKCN: not above 0.25.
The value for YRAD was not above 0.25; that for MDTF was not above 0.25.
Take STQN: the enrichment ratio is not above 0.25.
The value for TKSY was 3.1.
The value for SGMN was 30.2.
Next, PYYV: not above 0.25; YVFF: not above 0.25.
As for QTAS, the enrichment ratio is not above 0.25.
Next, QFCW: not above 0.25; SFLQ: 2.41; YCRF: not above 0.25.
For VQKL, the enrichment ratio was not above 0.25.
Next, QDPQ: not above 0.25; KINT: 0.594.
Turning to GFIH, the enrichment ratio is not above 0.25.
The value for QQCD was not above 0.25; that for LIFE was not above 0.25; that for QQNV was not above 0.25.
The value for QSWH was 4.01.
Next, EKTS: not above 0.25; DYKY: not above 0.25.
In the case of DGHC, the enrichment ratio was not above 0.25.
The value for HPVH was not above 0.25; that for HHFR was not above 0.25.
The value for VVMC was not above 0.25; that for NARS was not above 0.25; that for RKHS was not above 0.25.
Next, HYGI: not above 0.25; DAMC: not above 0.25.
On to KSIE, for which the enrichment ratio is not above 0.25.
Next, SANG: not above 0.25; GDVS: 0.682.
The value for EYDL was not above 0.25; that for IVWV was not above 0.25.
Next, WFAC: not above 0.25.
Turning to EPDP, the enrichment ratio is not above 0.25.
Take DWKM: the enrichment ratio is not above 0.25.
Next, FDNT: not above 0.25; KCGD: not above 0.25; EMGH: not above 0.25.
As to NSTR, the enrichment ratio is not above 0.25.
The value for AIWD was not above 0.25; that for RIHP was not above 0.25; that for KRHY was not above 0.25.
As for GHLN, the enrichment ratio is not above 0.25.
Next, EDFV: not above 0.25; TEKD: not above 0.25; WIYT: not above 0.25.
The value for GLGC was not above 0.25.
As to GSAR, the enrichment ratio was not above 0.25.
The value for QGPG was not above 0.25; that for KRPM was not above 0.25; that for TCSH was 10.9.
On to IRAW, for which the enrichment ratio is not above 0.25.
For the variant ESHP, the enrichment ratio was not above 0.25.
PHQH: the enrichment ratio is not above 0.25.
The value for RIYN was not above 0.25; that for FPHE was not above 0.25; that for LCDM was not above 0.25.
The value for QMHG was 13.
The value for ELRR was not above 0.25; that for NHFN was not above 0.25; that for AKQQ was not above 0.25.
YHHS: the enrichment ratio was not above 0.25.
Turning to FVYE, the enrichment ratio is not above 0.25.
Take VPFE: the enrichment ratio is not above 0.25.
The value for NQPI was not above 0.25; that for DWNV was not above 0.25; that for NGVD was not above 0.25.
The value for YKWS was not above 0.25; that for PCAS was not above 0.25; that for IDNF was not above 0.25.
Next, DCRQ: not above 0.25.
AHYV: the enrichment ratio was not above 0.25.
Next, PQSK: not above 0.25; INPL: not above 0.25.
The value for HISQ was not above 0.25; that for WVPI was not above 0.25.
Next, WMFC: not above 0.25; WDNS: not above 0.25; DAYY: not above 0.25.
With LEYD, the enrichment ratio is not above 0.25.
The value for LVIY was not above 0.25; that for KEWA was not above 0.25; that for HTSG was not above 0.25.
Next, GRPQ: not above 0.25; RCAK: not above 0.25; KEYQ: not above 0.25.
Next, NNCK: not above 0.25; KNLL: not above 0.25.
Regarding VSTK, the enrichment ratio was not above 0.25.
The value for YGYE was not above 0.25; that for FFLR was not above 0.25; that for VMYA was not above 0.25.
The value for DHFW was not above 0.25; that for YEYQ was not above 0.25; that for TRCY was 9.24.
For DPMQ, the enrichment ratio was not above 0.25.
Next, SFCL: 1.69.
The value for PKAR was not above 0.25.
The value for LHNT was not above 0.25.
LNAH: the enrichment ratio was not above 0.25.
The value for RGRR was 0.579.
The value for AQKL was not above 0.25; that for SNFA was not above 0.25; that for LYQA was not above 0.25.
The value for ADSG was 1.26; that for RCRL was not above 0.25; that for VGYC was not above 0.25.
With REYM, the enrichment ratio is not above 0.25.
In the case of QPDN, the enrichment ratio was not above 0.25.
For QMKR, the enrichment ratio is not above 0.25.
Next, KYCE: not above 0.25; KYQG: not above 0.25.
As for VFGW, the enrichment ratio was not above 0.25.
The value for PGFW was 0.388; that for SSEK was not above 0.25; that for SDKM was not above 0.25.
The value for IQFL was not above 0.25; that for KAFL was not above 0.25; that for ASDQ was not above 0.25.
Next, VHEY: not above 0.25; AVVN: 6.06; PYQP: not above 0.25.
For MSMN, the enrichment ratio was not above 0.25.
The value for TDIS was 1.04; that for KFVG was not above 0.25; that for AVSW was 5.53.
Next, LKMC: not above 0.25; FQVN: not above 0.25.
The value for DPVK was not above 0.25.
On to FMWL, for which the enrichment ratio is not above 0.25.
Consider EEAC, for which the enrichment ratio is not above 0.25.
The value for RPNN was not above 0.25; that for YVFA was not above 0.25.
On to SSNL, for which the enrichment ratio stood at 3.91.
The value for KKRW was not above 0.25.
The value for NMMN was not above 0.25.
The value for GRMF was not above 0.25; that for EKWN was not above 0.25.
Turning to NWAS, the enrichment ratio was not above 0.25.
As for EKMF, the enrichment ratio was not above 0.25.
As to YNDA, the enrichment ratio is not above 0.25.
The value for RTFK was not above 0.25.
The value for DDCC was not above 0.25.
The value for VIGK was not above 0.25; that for NARW was not above 0.25; that for FFDI was not above 0.25.
